Results: article PMC3967168
Results are given in words; binding and its absence hold for the method and conditions named. In cells and extracts the contact can be indirect. Some entries that bind do so weakly or less than the wild type.

The chains behind the UniProt entries cited, without tags or fusion partners.
UniProt P14635: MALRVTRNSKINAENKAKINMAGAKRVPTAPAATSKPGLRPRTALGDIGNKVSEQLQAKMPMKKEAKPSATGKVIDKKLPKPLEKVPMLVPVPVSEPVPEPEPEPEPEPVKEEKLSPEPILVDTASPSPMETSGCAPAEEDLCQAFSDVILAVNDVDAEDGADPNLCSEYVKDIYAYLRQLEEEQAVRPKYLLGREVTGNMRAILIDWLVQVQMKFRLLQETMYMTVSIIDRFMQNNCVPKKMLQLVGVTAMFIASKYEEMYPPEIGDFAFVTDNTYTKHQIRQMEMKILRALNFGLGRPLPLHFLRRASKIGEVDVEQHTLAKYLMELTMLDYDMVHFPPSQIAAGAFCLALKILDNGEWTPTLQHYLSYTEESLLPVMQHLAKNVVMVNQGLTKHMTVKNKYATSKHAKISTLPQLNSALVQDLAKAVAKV
UniProt O60563: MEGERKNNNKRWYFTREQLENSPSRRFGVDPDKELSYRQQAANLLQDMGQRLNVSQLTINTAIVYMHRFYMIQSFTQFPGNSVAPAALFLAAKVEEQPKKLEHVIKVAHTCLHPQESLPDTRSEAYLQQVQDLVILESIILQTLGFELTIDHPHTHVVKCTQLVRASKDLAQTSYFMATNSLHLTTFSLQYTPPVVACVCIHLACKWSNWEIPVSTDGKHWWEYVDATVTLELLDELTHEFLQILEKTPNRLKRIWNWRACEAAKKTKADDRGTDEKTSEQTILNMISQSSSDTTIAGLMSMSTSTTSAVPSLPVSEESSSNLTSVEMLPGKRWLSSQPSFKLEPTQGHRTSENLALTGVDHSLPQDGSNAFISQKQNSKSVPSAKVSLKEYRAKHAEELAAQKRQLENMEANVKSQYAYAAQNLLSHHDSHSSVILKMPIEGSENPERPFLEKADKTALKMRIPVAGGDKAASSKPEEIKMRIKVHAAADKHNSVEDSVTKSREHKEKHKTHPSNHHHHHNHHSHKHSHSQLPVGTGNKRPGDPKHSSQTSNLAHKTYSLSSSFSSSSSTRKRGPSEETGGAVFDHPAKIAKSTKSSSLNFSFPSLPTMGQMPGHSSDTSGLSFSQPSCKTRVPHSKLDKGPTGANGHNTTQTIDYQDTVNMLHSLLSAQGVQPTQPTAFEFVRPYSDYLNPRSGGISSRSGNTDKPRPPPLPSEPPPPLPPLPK
UniProt P16749: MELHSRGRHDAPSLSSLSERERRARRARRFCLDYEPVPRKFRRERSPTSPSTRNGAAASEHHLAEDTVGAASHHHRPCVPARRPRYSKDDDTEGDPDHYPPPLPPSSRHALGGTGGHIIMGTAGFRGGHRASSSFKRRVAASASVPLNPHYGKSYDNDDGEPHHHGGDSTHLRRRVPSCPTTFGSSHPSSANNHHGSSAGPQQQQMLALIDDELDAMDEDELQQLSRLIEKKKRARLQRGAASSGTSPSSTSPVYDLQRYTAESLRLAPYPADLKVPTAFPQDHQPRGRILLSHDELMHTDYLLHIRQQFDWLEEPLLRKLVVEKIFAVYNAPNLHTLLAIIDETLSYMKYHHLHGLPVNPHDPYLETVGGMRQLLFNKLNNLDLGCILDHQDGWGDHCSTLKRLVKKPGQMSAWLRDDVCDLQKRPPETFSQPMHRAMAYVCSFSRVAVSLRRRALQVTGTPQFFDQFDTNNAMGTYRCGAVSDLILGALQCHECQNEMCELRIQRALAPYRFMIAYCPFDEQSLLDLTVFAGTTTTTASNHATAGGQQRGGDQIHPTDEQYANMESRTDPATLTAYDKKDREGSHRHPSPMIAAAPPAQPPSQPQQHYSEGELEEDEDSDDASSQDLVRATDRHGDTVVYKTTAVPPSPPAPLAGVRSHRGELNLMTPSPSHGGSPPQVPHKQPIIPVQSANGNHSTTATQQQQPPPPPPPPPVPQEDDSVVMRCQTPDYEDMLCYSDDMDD

Experiments:
Experiment in all cases: co-IP
[1] = molecular target: Flag-tagged pUL97 (full-length) (human cytomegalovirus (HCMV)) (UniProt P16788)
[2] = molecular target: cyclin B1 (293T cells) (human (endogenous in 293T)) (UniProt P14635)
[3] = molecular target: pUL97 in HCMV-infected HFFs (human cytomegalovirus (HCMV) strain AD169-GFP) (UniProt P16788)
[4] = molecular target: endogenous cyclin T1 (293T cells) (human (endogenous in 293T)) (UniProt O60563)
[5] = molecular target: cyclin T1 in HFFs (human (endogenous in HFF)) (UniProt O60563)

Substance | binding [2] | binding [4] | also measured
Flag-tagged pUL97 (full-length) (from UniProt P16788 1-707) (enzyme) |  |  | binding [1]: binds
pUL97(74–707)-Flag (from UniProt P16788 74-707) (domain or fragment) | binds |  | 
viral mRNA export factor pUL69 in HCMV-infected HFFs (from UniProt P16749 1-744) |  |  | binding [3]: binds
pUL97(1–280)-Flag (from UniProt P16788 1-280) (domain or fragment) |  | binds | 
pUL97 in HCMV-infected HFFs (from UniProt P16788 1-707) (enzyme) |  |  | binding [5]: binds
pUL97(231–707)-Flag (from UniProt P16788 231-707) (domain or fragment) |  | binds | 
pUL97(157–707)-Flag (from UniProt P16788 157-707) (domain or fragment) | binds |  | 
pUL97(K355M)-Flag (from UniProt P16788 1-707) (enzyme) | no binding |  | 
pUL97(MX4)-Flag (from UniProt P16788 1-707) (enzyme) | binds |  | 
pUL97(1–230)-Flag (from UniProt P16788 1-230) (domain or fragment) |  | no binding | 
